Reference: the supplement of paper PMC4604168 (melanoma cell lines)
The list shows a part of the results. Single values are uncertain, as repeats are few or missing.

How the values were obtained:
Test in all cases: cell count relative to DMSO control; melanoma cells; higher = more viable cells
Conditions in all cases: library dose: standard library concentration; 72 h
G361 = tested on: G361
IPC-298 = tested on: IPC-298
IST-MEL1 = tested on: IST-MEL1
LB2518-MEL = tested on: LB2518-MEL
LOXIMVI = tested on: LOXIMVI
MEL-HO = tested on: MEL-HO
MZ2-MEL = tested on: MZ2-MEL
MeWo = tested on: MeWo
RPMI7951 = tested on: RPMI7951
RVH-421 = tested on: RVH-421
SkMel28 = tested on: SkMel28
SkMel2 = tested on: SkMel2
SkMel30 = tested on: SkMel30
SkMel5 = tested on: SkMel5
UACC257 = tested on: UACC257
UACC62 = tested on: UACC62
WM115 = tested on: WM115
WM1716 = tested on: WM1716
WM1745 = tested on: WM1745
WM3526 = tested on: WM3526
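Also: cells treated in 1,536-well plates, then fixed and DAPI-stained, with nuclei counted from automated high-throughput microscope images.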

Structure (SMILES) | cell count (G361) | cell count (IPC-298) | cell count (IST-MEL1) | cell count (LB2518-MEL) | cell count (LOXIMVI) | cell count (MEL-HO) | cell count (MZ2-MEL) | cell count (MeWo) | cell count (RPMI7951) | cell count (RVH-421) | cell count (SkMel28) | cell count (SkMel2) | cell count (SkMel30) | cell count (SkMel5) | cell count (UACC257) | cell count (UACC62) | cell count (WM115) | cell count (WM1716) | cell count (WM1745) | cell count (WM3526)
C#Cc1cccc(Nc2ncnc3cc(OCCOC)c(OCCOC)cc23)c1 [erlotinib] + COc1cc(Nc2ncc(F)c(Nc3ccc4c(n3)NC(=O)C(C)(C)O4)n2)cc(OC)c1OC [Tamatinib] (first compound 4 µM, partner dose 2 µM) | 81.9% | 98.5% | 77.3% | 102% | 59.8% | 80% | 68.4% | 78.5% | 48.5% | 78.2% | 67% | 82.3% | 94.2% | 61.1% | 96.4% | 73.4% | 84.3% | 98.6% | 45.1% | 83.4%
Nc1cccc2c1CN(C1CCC(=O)NC1=O)C2=O (stereo not given) [lenalidomide] + O=c1cc(-c2cccc3c2Sc2ccccc2S3)oc(N2CCOCC2)c1 [KU55933] (first compound 5 µM, partner dose 5 µM) | 70.5% | 92.1% | 92.2% | 107% | 109% | 81.3% | 106% | 97% | 81.2% | 118% | 94.3% | 80.9% | 97.5% | 90.5% | 106% | 107% | 111% | 91.4% | 81.8% | 77.4%
C#Cc1cccc(Nc2ncnc3cc(OCCOC)c(OCCOC)cc23)c1 [erlotinib] + NCC(=O)Nc1ccc(-n2nc(C(F)(F)F)cc2-c2ccc3c(ccc4ccccc43)c2)cc1 [OSU03012] (first compound 4 µM, partner dose 5 µM) | 58.1% | 52% | 73.6% | 65.5% | 53% | 69.5% | 67.8% | 60.2% | 58.9% | 77.5% | 25.4% | 39.1% | 60.6% | 48.6% | 85.8% | 67.4% | 65.1% | 79.1% | 39.3% | 44.6%
C#Cc1cccc(Nc2ncnc3cc(OCCOC)c(OCCOC)cc23)c1 [erlotinib] + CN(C)S(=O)(=O)c1ccc2c(c1)/C(=C/c1cc3c([nH]1)CCCC3)C(=O)N2 [SU6656] (first compound 4 µM, partner dose 2 µM) | 60.9% | 60.8% | 68.1% | 50.6% | 82.6% | 75.1% | 76.4% | 62.8% | 37.5% | 63.1% | 39.2% | 90.3% | 76.9% | 65.4% | 86.1% | 50.6% | 47.3% | 59% | 47.5% | 68%
O=C(CCCCCCC(=O)Nc1ccccc1)NO [vorinostat] + O=C(O)C(=O)Nc1sc2c(c1C(=O)O)CCNC2 [TCS401] (first compound 0.4 µM, partner dose 8.33333 µM) | 69.1% | 76.2% | 106% | 84.2% | 86.4% | 89.5% | 93.4% | 95.8% | 81.5% | 73.5% | 48.4% | 67.2% | 98.2% | 71.7% | 67.8% | 81.1% | 58.9% | 81.3% | 75.5% | 72.1%
Nc1cccc2c1CN(C1CCC(=O)NC1=O)C2=O (stereo not given) [lenalidomide] + O=C(O)C(=O)Nc1sc2c(c1C(=O)O)CCNC2 [TCS401] (first compound 5 µM, partner dose 8.33333 µM) | 87.4% | 97.5% | 109% | 117% | 137% | 109% | 138% | 96.6% | 105% | 104% | 105% | 91.1% | 106% | 100% | 81.1% | 106% | 89.7% | 93.1% | 74.5% | 81.6%
Nc1cccc2c1CN(C1CCC(=O)NC1=O)C2=O (stereo not given) [lenalidomide] + CN(NC(=O)CC(=O)NN(C)C(=S)c1ccccc1)C(=S)c1ccccc1 [STA4783] (first compound 5 µM, partner dose 0.03 µM) | 38.7% | 64.1% | 13.7% | 17.1% | 63.1% | 78.1% | 105% | 13.6% | 86.4% | 63.3% | 26.7% | 73.5% | 90.4% | 45.7% | 101% | 52% | 22.4% | 74.3% | 29.5% | 97.8%
Cn1c(Nc2ccc(C(F)(F)F)cc2)nc2cc(Oc3ccnc(-c4ncc(C(F)(F)F)[nH]4)c3)ccc21 + Cc1ccc(NC(=O)c2cccc(N(C)C)c2)cc1NC(=O)c1ccc(O)cc1 [ZM336372] (first compound 0.4 µM, partner dose 10 µM) | 23.1% | 52.6% | 77.6% | 32.6% | 72.8% | 63.8% | 67.2% | 69.8% | 41.4% | 54.6% | 39.2% | 56.4% | 66.6% | 36.5% | 71.5% | 46.5% | 29.5% | 74.6% | 54.4% | 43.2%
Cn1c(Nc2ccc(C(F)(F)F)cc2)nc2cc(Oc3ccnc(-c4ncc(C(F)(F)F)[nH]4)c3)ccc21 + NCC(=O)Nc1ccc(-n2nc(C(F)(F)F)cc2-c2ccc3c(ccc4ccccc43)c2)cc1 [OSU03012] (first compound 0.4 µM, partner dose 5 µM) | 33.1% | 49.3% | 65.5% | 43.8% | 69.5% | 68% | 84.9% | 72.7% | 72.4% | 54.2% | 22.3% | 21.8% | 31% | 26.1% | 79.2% | 51.4% | 47.2% | 58.6% | 66.2% | 36.6%
COCC[n+]1c2c(n(Cc3cnccn3)c1C)C(=O)c1ccccc1C2=O + C[C@@H]1CCN(C(=O)CC#N)C[C@@H]1N(C)c1ncnc2[nH]ccc12 [CP690550] (first compound 0.002 µM, partner dose 5 µM) | 94.7% | 67.2% | 55.8% | 36.9% | 77.6% | 84.9% | 37.8% | 76.5% | 131% | 102% | 68.9% | 38.1% | 98% | 47.8% | 26.2% | 81.1% | 121% | 75.4% | 99.7% | 59.3%
OCc1c[nH]c2ccccc12 [Indole-3-carbinol] + O=C(O)c1ccc(-c2c[nH]c3ncc(-c4ccccc4)cc23)cc1C1CCCC1 [GSK650394] (first compound 4 µM, partner dose 0.8 µM) | 63.2% | 89.3% | 62.1% | 82.1% | 65.3% | 71.6% | 91% | 81.8% | 61.3% | 79.7% | 75.8% | 68.9% | 85.7% | 68.3% | 70.1% | 83.2% | 58.9% | 79.2% | 62.1% | 102%
Nc1cccc2c1CN(C1CCC(=O)NC1=O)C2=O (stereo not given) [lenalidomide] + CCCCCCCCCCCC1=C(O)C(=O)C=C(O)C1=O [Embelin] (first compound 5 µM, partner dose 6 µM) | 77.3% | 75.1% | 57.5% | 100% | 187% | 78.9% | 96% | 98.3% | 79.6% | 82.6% | 99.2% | 91.2% | 86.6% | 82.7% | 82.8% | 84.8% | 86.9% | 85.2% | 70.4% | 102%
O=C(CCCCCCC(=O)Nc1ccccc1)NO [vorinostat] + COC(=O)c1sccc1S(=O)(=O)Nc1ccc(Nc2ccccc2)cc1OC [GSK0660] (first compound 0.4 µM, partner dose 5 µM) | 73.6% | 72.4% | 96.9% | 93.4% | 95% | 100% | 78.5% | 88.7% | 75.4% | 95.4% | 50.4% | 80% | 104% | 74.7% | 75.4% | 80.4% | 89.5% | 88.9% | 86% | 76.8%
OCc1c[nH]c2ccccc12 [Indole-3-carbinol] + OCCn1cc(-c2cnc3nnn(Cc4ccc5ncccc5c4)c3n2)cn1 [PF04217903] (first compound 4 µM, partner dose 5 µM) | 115% | 113% | 121% | 79.2% | 99.2% | 106% | 142% | 85.2% | 188% | 122% | 115% | 86.6% | 99.5% | 91.3% | 89.4% | 95.3% | 117% | 88% | 78.3% | 94.8%
C#Cc1cccc(Nc2ncnc3cc(OCCOC)c(OCCOC)cc23)c1 [erlotinib] + COc1ccc(-c2ccc3c(N4CCOCC4)nc(N4C[C@@H](C)O[C@@H](C)C4)nc3n2)cc1CO [KU0063794] (first compound 4 µM, partner dose 0.1 µM) | 95.3% | 71.1% | 98.1% | 71.4% | 101% | 110% | 90.5% | 83.2% | 68.8% | 97.4% | 56.4% | 86.5% | 83.4% | 77.3% | 111% | 103% | 88.1% | 95.7% | 60.3% | 77.3%
COCC[n+]1c2c(n(Cc3cnccn3)c1C)C(=O)c1ccccc1C2=O + CO[C@@H]1[C@H](N(C)C(=O)c2ccccc2)C[C@H]2O[C@]1(C)n1c3ccccc3c3c4c(c5c6ccccc6n2c5c31)C(=O)NC4 [Midostaurin] (first compound 0.002 µM, partner dose 0.4 µM) | 44.7% | 20.2% | 45.2% | 10.1% | 54.1% | 64.6% | 12.3% | 21.8% | 37.6% | 108% | 15.3% | 11% | 36.2% | 31.9% | 26.9% | 62.8% | 28.6% | 38.9% | 39.1% | 24.7%
